According to the supplement of paper PMC3334620:
Whole data set: some 33,000 sequences, median “E-score (-0.5 to 0.5)” near -0.056, cut for the highest 2% near 0.38. The list shows a part of the results.

Biological target: Stb4 (UniProt P50104)
Assay: PBM E-score (8-mer binding enrichment) (E-score (-0.5 to 0.5)); higher = stronger / more preferred TF binding; most listed sequences are background and not binding sites
Details: protein concentration: 200 nM; construct: GST-DNA-binding domain
Method in brief: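 Masliner-normalised scans of fluorescent anti-GST signal were the basis for scoring. That signal came from GST-tagged yeast transcription factors applied at about 100-200 nM to double-stranded universal all-10-mer Agilent arrays on fresh or once-stripped slides. Each ungapped eight-base word, pooled with its reverse complement, received an E-score from the Universal PBM Analysis Suite.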

Point of comparison: GCAACTGA, “PBM E-score” value -0.0798. Against it:
- CTGTATTC — higher, 0.0647
- CCATTGCC — higher, 0.0986
- CCGAATCC — higher, 0.427
- CCGATGAG — higher, 0.257
- CGGCCAAG — higher, 0.00948
- GGGTAGAC — higher, 0.0641
- CTAGTCAA — lower, -0.133
- ACCATGAT — lower, -0.0957
- TTGGCAAA — lower, -0.183
- TAATGGCA — lower, -0.122
- CTCTTGCA — lower, -0.13
- ACCTTGAC — lower, -0.126
- ACATCCTC — higher, 0.0584
- ATCTCACC — higher, 0.0345
- CTCCTTAA — lower, -0.0953
- GGCTGGAC — higher, -0.0621
- AGTCACTG — lower, -0.274
- ATTTAAAC — lower, -0.197
- ATATGTCG — higher, -0.00545
- ACGAACTC — higher, -0.0195
- AATATACA — lower, -0.185
- GGTGGTGA — higher, 0.0903
- CGTGTTCA — lower, -0.127
- TAACCTTA — lower, -0.0931
- ACGCTAAT — higher, 0.0721
- CAGGACGG — lower, -0.091
- ACAGTGCT — lower, -0.181
- ATCTCAAT — lower, -0.0916
- CTCTTAAA — lower, -0.149
- CTTATATC — higher, 0.0498
- CCTAATCA — higher, 0.0039
- AGATCCCC — lower, -0.0874
- AGGATAGA — lower, -0.107
- AGCCCATG — lower, -0.273
- AGTCTCGG — higher, 0.39
- ATGGCATA — lower, -0.124
- AGTCCCCC — lower, -0.311
- AGAAGAAT — higher, 0.023
- CACTCACC — lower, -0.107
- AAGGCTCT — lower, -0.127
- ATGTCCCC — higher, 0.0519
- ATTACTTC — higher, -0.0323
- CCTTTGGA — lower, -0.163
- AAAGCGCC — higher, -0.0491
- AGATAATA — higher, -0.0269
- AAATGAAT — lower, -0.214
- CGTTCCTA — higher, -0.00632
- AGAGAAAT — higher, -0.0233
- AAACGTGG — lower, -0.162
- GAGGTGCA — higher, -0.0012
- CGACTATA — higher, -0.0289
- AGCCCTAA — higher, -0.00381
- ACACACGA — lower, -0.175
- CTATCCAC — higher, -0.0315
- ACTGGATC — higher, 0.0403
- ATACTGCA — higher, 0.225
- CAGATCAG — lower, -0.088
- CGCCACTC — higher, -0.00773
- ATCGGCCC — higher, 0.269
- AAACAGAA — lower, -0.265
- CCTCACTA — lower, -0.181
- TATTAGGA — lower, -0.129
- CTTCCAGA — lower, -0.109
- CGGCGTAA — higher, 0.083
- CTCATACA — higher, -0.00666
- AATTCCAA — higher, -0.07
- GCTCCTAA — lower, -0.13
- AGGATCCC — higher, 0.0362
- GGTCAAAC — higher, 0.053
- CCCTCGCA — higher, -0.0413
- GTCGGAAC — higher, 0.454
- GCTCAGAA — higher, -0.0152
- GGGATAAA — higher, 0.105
- ACACGCAG — lower, -0.0986
- ACTTTAAG — lower, -0.105
- CCTTTTGC — lower, -0.151
- GCATCCGC — higher, 0.295
- ACGCCTGC — lower, -0.193
- CGACCTTC — higher, 0.169
- AGGCCTTC — higher, -0.0423
- ACCTGAGT — lower, -0.119
- AGATACAG — lower, -0.101
- ACTGGCAG — higher, 0.00127
- GATCTCGA — higher, 0.0551
- GCATGTGA — higher, -0.0762
- GTCGCATA — higher, -0.0784
- GACATGCA — lower, -0.109
- ATGGGTCG — higher, 0.2
- CGACAGCA — higher, -0.0338
- AACTGACG — lower, -0.175
- CCGTTCGC — higher, 0.0505
- ACACCCTA — lower, -0.164
- AAGCAACC — lower, -0.124
- CCGCAGCC — higher, 0.101
- AGTTGAAG — higher, -0.00772
- CACATAAC — lower, -0.231
- GGTTACTA — higher, 0.192
- AACACATC — higher, -0.0115
- AGAGCGCT — lower, -0.266
- ATCCGACG — higher, 0.452
- GGACGGTA — higher, 0.184
- AGGACGAT — lower, -0.16
- CGCGCATA — higher, -0.0424
- AGGAACCG — higher, 0.263
- CACGCGAC — higher, -0.062
- ATCGGAAT — higher, 0.434
- GCCTGTCA — lower, -0.247
- CCTCTGGA — higher, 0.0124
- ACATAAGG — higher, 0.119
- ACCTTACA — lower, -0.182
- CCGCACGC — higher, -0.0725
- CCCTTGTC — higher, -0.0245
- ATAGTGCC — higher, 0.00846
- GGAGATAA — higher, 0.116
- CCTTTAAA — lower, -0.13
- ACGTAAAA — higher, -0.0542
- GCGACGAA — lower, -0.14
- AAGCAATG — higher, 0.0123
- TAAGGCTA — lower, -0.188
- AAGAGATT — higher, 0.0547
- CACTAATG — higher, -0.0592
- ACCAGTCT — lower, -0.193
- ACTCCCCC — higher, -0.0781
- ACTTGAAC — higher, -0.0299
- AAGTATAC — lower, -0.14
- GTGACGCA — lower, -0.123
- ACGTCTGG — lower, -0.182
- ACCGGTTG — higher, 0.168
- CGTCTCTC — higher, 0.0264
- ACTCTTCA — lower, -0.226
- GTCGAATA — lower, -0.181
- CATAATGG — higher, -0.0604
- CACAGCGA — lower, -0.198
- CCGTTACC — higher, 0.161
- ATACGCTA — higher, 0.0599
- AGACGGAG — higher, 0.0481
- GATATGAA — higher, 0.103
- ATTATGTA — higher, 0.0615
- ATCTTAGA — higher, 0.0606
- TGTCATAA — lower, -0.24
- GCGACTCC — lower, -0.0979
- CTCTGCAA — lower, -0.0996
- ATTCCTAA — higher, -0.0499
- AAACGAAG — lower, -0.191
- CGACGTTC — higher, -0.025
- GATCAAAA — higher, -0.0588
- GTGCGCCA — lower, -0.157
- TGGCTAAA — higher, 0.0298
- GTAAAAAA — higher, 0.16
- AACTCTTG — lower, -0.264
- AACACGGC — higher, 0.121
- AGTCTGGG — higher, -0.0778
- ATAAGGCC — higher, -0.00625
- AGTCGATA — lower, -0.102
- AGATGGGA — lower, -0.151
- AGCAATGC — higher, -0.0495
- AGACAGAT — lower, -0.0832
- AGTCGTTA — lower, -0.218
- CGTCCCCC — higher, -0.0575
- ACGGTGTA — higher, 0.0257
- ATAATCGG — higher, 0.348
- GCGGAAAC — higher, 0.294
- ATACCATC — higher, 0.119
- CCTTGTTA — lower, -0.232
- ATCTGATG — lower, -0.192
- ACTCCTCG — higher, 0.0246
- ACAGTGCG — higher, -0.0137
- GAGCGATA — lower, -0.0934
- GCGCACAA — higher, -0.0676
- AAGAATAT — higher, 0.0558
- CTAGTTGC — lower, -0.112
